In paper PMC4336329 (PLoS ONE, 2015):
The whole screen tested about 310,000 compounds, of which about 14,000 (4.5%) showed an effect of 50% or more. The effect is printed as a negative number. The list shows a part of the results.

Target: human ether-à-go-go-related gene (hERG) potassium channel (human, UniProt Q12809)
Experiment: primary screen, population patch clamp on CHO cells stably expressing hERG
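Further: peak tail current of the secondary pulse compared with the same well before compound.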

Sequence of human ether-à-go-go-related gene (hERG) potassium channel (Q12809 whole entry, looked up): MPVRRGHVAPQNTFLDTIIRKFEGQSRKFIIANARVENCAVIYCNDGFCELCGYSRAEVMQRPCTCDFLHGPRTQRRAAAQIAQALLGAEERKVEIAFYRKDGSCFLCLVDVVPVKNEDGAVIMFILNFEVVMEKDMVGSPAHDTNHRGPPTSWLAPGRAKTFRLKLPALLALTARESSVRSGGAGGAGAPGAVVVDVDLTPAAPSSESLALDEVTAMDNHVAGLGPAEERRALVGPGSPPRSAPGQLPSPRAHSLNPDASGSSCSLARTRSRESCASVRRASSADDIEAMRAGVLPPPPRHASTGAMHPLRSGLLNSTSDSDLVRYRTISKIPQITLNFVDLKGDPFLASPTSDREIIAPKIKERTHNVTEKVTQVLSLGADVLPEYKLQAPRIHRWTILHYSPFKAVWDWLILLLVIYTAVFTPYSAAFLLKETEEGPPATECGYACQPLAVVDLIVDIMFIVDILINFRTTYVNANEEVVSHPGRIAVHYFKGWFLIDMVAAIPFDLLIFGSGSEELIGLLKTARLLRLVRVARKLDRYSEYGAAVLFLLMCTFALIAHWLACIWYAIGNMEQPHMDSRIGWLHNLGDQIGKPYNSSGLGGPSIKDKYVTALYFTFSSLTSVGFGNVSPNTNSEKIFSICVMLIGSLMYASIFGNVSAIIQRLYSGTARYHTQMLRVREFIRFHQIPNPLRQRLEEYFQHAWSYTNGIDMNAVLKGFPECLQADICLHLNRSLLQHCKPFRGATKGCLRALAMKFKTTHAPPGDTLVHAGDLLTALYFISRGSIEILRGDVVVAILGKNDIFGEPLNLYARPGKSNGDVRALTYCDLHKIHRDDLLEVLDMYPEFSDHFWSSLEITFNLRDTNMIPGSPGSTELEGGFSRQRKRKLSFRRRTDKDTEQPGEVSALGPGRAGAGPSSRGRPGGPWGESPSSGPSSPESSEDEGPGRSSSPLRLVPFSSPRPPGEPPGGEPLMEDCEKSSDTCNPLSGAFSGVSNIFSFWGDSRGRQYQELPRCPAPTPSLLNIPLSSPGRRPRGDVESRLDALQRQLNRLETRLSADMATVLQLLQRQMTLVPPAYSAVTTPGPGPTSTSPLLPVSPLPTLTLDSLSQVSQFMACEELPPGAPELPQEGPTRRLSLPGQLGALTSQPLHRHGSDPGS

SMILES	hERG current change (%, negative = inhibition) at 10uM [%]
CCOc1cc(C2C(C(C)=O)=C(C)Nc3ncnn32)ccc1O (stereo not drawn)	-0.225
O=S1(=O)CCC(N=Cc2ccc(-c3ccc(Cl)cc3)o2)C1 (stereo not drawn)	2.43
c1coc(-c2nc3c([nH]2)CCc2nonc2-3)c1	17.7
CCc1cc2cccc(C)c2nc1SCC(=O)NNC(=O)c1ccco1	-0.00372
C=CCN=C1CC(C)(C)C(C(=O)OC)C(O)=C1C(=O)CCC (stereo not drawn)	11.5
Cc1ccc(S(=O)(=O)N(Cc2ccc(C(F)(F)F)cc2)C(=O)N2CCN(C)CC2)cc1	14.6
O=C(CNC(=O)C1CCCCC1)Nc1ccc(F)c(Cl)c1	6.31
COc1ccc(C(=O)NCC(c2ccco2)N2CCc3ccccc32)c(OC)c1 (stereo not drawn)	-15.2
NC(=O)C1(NC(=O)[C@@H]2CC3(CC(c4cccc(NC(=O)[C@@H]5CCC(=O)N5)c4)=NO3)CN2C(=O)c2ccccc2)CC1 (stereo partly drawn)	1.96
COC(=O)C(=Cc1ccccc1[N+](=O)[O-])C(=O)OC	26.5
CCCCc1nnc(NC(=O)C=C(C)C)s1	5.69
CNCC(O)COc1cccc(OC)c1 (stereo not drawn)	23.7
O=C(CCN1C(=O)COc2ccccc21)N1CCC2(CC1)OCCO2	-12.5
COc1cccc(-c2cccc(NC(=O)C3CCN(Cc4nccs4)CC3)c2)c1	-37.1
CCOC(=O)C(C(=O)NCc1ccc(C)cc1)c1ncc(C(F)(F)F)cc1Cl (stereo not drawn)	-2.08
Fc1ccccc1N1CC(c2ccccc2)C(c2cccs2)=N1 (stereo not drawn)	9.56
Cl.O=S(=O)(NCC(c1ccco1)N1CCCCC1)c1cccc(C(F)(F)F)c1 (stereo not drawn)	-57.7
COc1ccccc1NS(=O)(=O)c1cccc(C(=O)N(C)Cc2cccs2)c1	-27.9
COc1ccc(NS(=O)(=O)c2ccc(Oc3ncccn3)cc2)cc1	3.85
O=C(c1cc(-c2ccncc2)nc2ccc(Br)cc12)N1CCN(c2ccccn2)CC1	-37.2
Cc1cc(C)c(S(=O)(=O)NCc2cn3c(C)csc3n2)c(C)c1	6.58
CCN1CCCC1CNS(=O)(=O)c1c(C)cc(C)cc1C.Cl (stereo not drawn)	-25.9
COc1cc(OC)c2ccc(=O)oc2c1C(CC(=O)N1CCN(c2ccccc2)CC1)c1ccc2c(c1)OCO2 (stereo not drawn)	2.82
CCC(C)(C(=O)NC1CCCC1)N(Cc1ccco1)C(=O)Cc1cccs1 (stereo not drawn)	1.74
COc1ccc(N2CCCn3c2nc2c3c(=O)n(Cc3ccccc3)c(=O)n2C)c(OC)c1	-15.2
Cc1ccccc1CN1CCC(Oc2ccc(C(=O)NCc3ccccn3)cc2)CC1	-13.6
O=C(CSc1ncn[nH]1)c1ccc2c(c1)OCO2	-4.14

SMILES	hERG current change (%, negative = inhibition) at 10uM [%]
Cc1ccnc(NC(=O)C2CCN(S(=O)(=O)c3cccc4nsnc34)CC2)c1	-18.6
Cc1ccc(S(=O)(=O)/N=C(\Sc2ccccc2)c2ccccc2)cc1	14.1
Cn1cnc(S(=O)(=O)Nc2ccc(OC(F)F)cc2)c1	22.7
COc1ccc(NC(=O)CS(=O)c2ccc(F)cc2)cc1 (stereo not drawn)	16.7
O=C1C=C(N2CCCCC2)c2ccccc2C1=O	-9.48
O=C(O)CSc1cc(NS(=O)(=O)c2ccc(Cl)cc2)c2ccccc2c1O	9.2
Cc1cccc(C)c1OCc1cc(C(=O)N(Cc2c(C)nn(C)c2C)C2CC2)no1	-31.5
Cc1ccccc1Cc1c(C)nc2nc(SCC(=O)NCCCN3CCCCC3)nn2c1C	-11.7
Cc1ccc(OCCCC(=O)Nc2nccs2)cc1	13.4
CCCc1cc(=O)oc2c3c(cc(OCC(=O)NCC4CCC(C(=O)O)CC4)c12)OC(C)(C)CC3 (stereo not drawn)	3.64
Cc1ccc(N/C=C/C(=O)c2cccs2)cc1	15.1
Cc1ccccc1C(=O)Nc1nnc(S(=O)(=O)N2CCCCCC2)s1	3.4
O=[N+]([O-])c1cccc(/C=N/N2CCN(c3ccccn3)CC2)c1	4.41
CCN1CCN(c2ccc(S(=O)(=O)N3CCOCC3)cc2NC(=O)CCSC)CC1	-9.37
CC(C)(C)N1C(=O)[C@H]2[C@@H](c3ccc(Br)cc3)N3C(=O)N(c4cccc(Br)c4)C(=O)[C@@]3(Cc3ccccc3)[C@H]2C1=O	4.12
COc1cc(OC)cc(C(=O)NNC(=S)Nc2ccccc2OC)c1	10.8
COc1ccc(C2CC(c3ccc(F)cc3)n3nc(NC(=O)c4ccco4)nc3N2)cc1 (stereo not drawn)	-60.3
CCOC(=O)Cc1csc(NC(=O)CSc2cc(Cl)ccc2Cl)n1.O=C(O)C(=O)O	-1.74
C=CCOc1c(CNc2ncn[nH]2)cccc1OC	9.23
COc1ccccc1NC(=O)c1sc2nc(N3CCOCC3)c3c(c2c1N)CCCC3	15.2
Cc1cccc(NC(=O)CSc2nnc(NC(=O)C3CC3)s2)c1C	3.63
O=C(Nc1cc(Sc2ccccn2)cc([N+](=O)[O-])c1)c1ccc([N+](=O)[O-])cc1	-6.06
COc1cc(C(=O)N2CCN(C(=O)C(Cc3cc(C)ccc3C)NC(C)=O)CC2)cc(OC)c1OC (stereo not drawn)	-14.4
Cn1c(SCC(=O)Nc2nc(C(C)(C)C)cs2)nnc1C1CC1	-24.4
CC(C(=O)N1CCc2ccccc21)N1CCN(S(=O)(=O)c2cccs2)CC1 (stereo not drawn)	-28.8
CN(C(=O)CSc1ncnc2sccc12)C1CCS(=O)(=O)C1 (stereo not drawn)	5.34
CC(=O)Nc1ccc(N/C=C/C(=O)c2ccc(Br)cc2)cc1	18.3
